Several values for one entry are separate records, joined by “and”; a condition that tells them apart may be missing. Equal entries are not always repeated. The whole screen tested about 390,000 compounds, of which about 17,000 (4.4%) were called active. Inconclusive results, whose numbers are uncertain, are shown with a selection of clear calls. The call rests on the fitted dose curve; in most records, active means well fitted inhibition curve with a large enough effect; inconclusive means small, poorly fitted or top-dose-only effect; inactive means no such curve, though single readings can be large or run the other way. Potencies of inconclusive entries are doubtful fits and often do not repeat. A structure can be active in one record and inactive in another.
What follows are compounds tested against Lysine-specific demethylase 4A (Homo sapiens) (UniProt O75164) (assay: qHTS Assay for Inhibitors of JMJD2A-Tudor Domain). Settings: AlphaScreen JMJD2A-Tudor / H3K4me3 peptide binding; activity change, negative = inhibition: at 114 µM (top of the series).
Chain of UniProt O75164 (O75164 whole entry, looked up, the tested form may be a part): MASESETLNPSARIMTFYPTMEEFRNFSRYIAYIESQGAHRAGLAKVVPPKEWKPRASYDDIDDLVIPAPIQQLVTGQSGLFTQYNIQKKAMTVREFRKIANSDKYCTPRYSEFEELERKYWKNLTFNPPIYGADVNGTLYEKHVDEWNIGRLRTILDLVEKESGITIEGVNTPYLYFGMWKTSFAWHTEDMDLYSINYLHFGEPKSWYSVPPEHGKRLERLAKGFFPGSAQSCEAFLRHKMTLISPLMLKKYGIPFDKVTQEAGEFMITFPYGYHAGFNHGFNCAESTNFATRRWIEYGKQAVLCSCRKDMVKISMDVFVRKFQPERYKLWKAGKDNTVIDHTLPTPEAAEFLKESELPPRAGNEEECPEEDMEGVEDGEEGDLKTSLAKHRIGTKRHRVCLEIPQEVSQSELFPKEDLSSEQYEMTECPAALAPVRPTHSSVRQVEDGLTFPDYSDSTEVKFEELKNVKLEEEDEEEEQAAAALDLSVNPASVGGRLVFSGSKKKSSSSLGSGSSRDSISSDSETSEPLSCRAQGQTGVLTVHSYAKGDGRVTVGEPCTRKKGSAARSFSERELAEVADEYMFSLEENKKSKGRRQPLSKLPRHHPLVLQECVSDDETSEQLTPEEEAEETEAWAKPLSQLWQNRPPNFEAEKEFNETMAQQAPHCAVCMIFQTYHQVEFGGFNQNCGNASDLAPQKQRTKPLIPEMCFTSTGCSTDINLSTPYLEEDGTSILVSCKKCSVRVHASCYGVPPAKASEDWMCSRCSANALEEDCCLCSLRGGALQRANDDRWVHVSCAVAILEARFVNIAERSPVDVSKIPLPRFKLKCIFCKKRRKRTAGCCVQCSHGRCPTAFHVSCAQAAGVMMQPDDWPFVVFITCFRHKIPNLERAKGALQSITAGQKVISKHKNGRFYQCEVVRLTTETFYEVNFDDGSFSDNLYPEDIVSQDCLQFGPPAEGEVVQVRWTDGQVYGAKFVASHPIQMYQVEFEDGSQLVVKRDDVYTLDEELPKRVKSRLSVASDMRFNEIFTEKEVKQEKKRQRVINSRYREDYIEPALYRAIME
With `CCOc1ccc(NC(=O)N2CCC(N3CCCCC3)CC2)cc1` the “activity change, negative = inhibition” value was inactive: -9.73%.
`O=C(N/N=C/c1ccccc1)C(=O)N/N=C/c1ccccc1` was tested, and the “activity change, negative = inhibition” value was inactive: -13.7%.
For `Cn1cccc1C(=O)Nc1nc(-c2ccccn2)cs1`, the Potency was active: 56.2 µM.
For `COC(=O)c1sccc1-c1ccc(C(=O)Nc2ccccc2)o1`, the “activity change, negative = inhibition” value was inactive: -0%.
For `c1nc(NCC2CCCO2)c2cc(-c3ccc4c(c3)OCO4)ccc2n1` (centres undefined), the Potency was inconclusive: 79.4 µM [inhibitor, partial curve].
In the case of `CCOC(=O)c1ccccc1NC(=O)CSc1nc2ccccc2c(=O)n1CCCN1CCOCC1`, the Potency is reported as inconclusive: 39.8 µM [inhibitor, partial curve].
With `COc1ccc(C(=O)CSc2cc(C)[nH]c(=O)n2)cc1` the Potency was inconclusive: 56.2 µM [inhibitor, partial curve].
`NS(=O)(=O)c1ccc(Oc2ccc(S(N)(=O)=O)cc2)cc1` was tested, and the “activity change, negative = inhibition” value was inactive: -4.9%.
For `C#CCOCCOCCOCCNc1nc(N2CCOCC2)nc(N2CCN(C(=O)[C@H](CCCN=C(N)N)n3cc(C(N)[C@@H](C)CC)nn3)CC2)n1` (some centres undefined), the “activity change, negative = inhibition” value was inactive: -19.7%.
`C=CCOC(=O)C1=C[C@H](c2cn(C(C)=O)c3ccccc23)C[C@H](OCc2ccc(CO)cc2)O1` was tested, and the Potency was inconclusive: 50.1 µM [inhibitor, full curve, poor fit].
With `Cc1cccc(NC(=O)CSc2nnc(CSc3nc(C)cc(C)n3)o2)c1` the “activity change, negative = inhibition” value was inactive: -4.72% [at 57.1 µM].
For `NC(=S)N/N=C/c1c[nH]c2ccccc12`, the Potency was inconclusive: 56.2 µM [inhibitor, partial curve].
`CCCN(CCC)c1ccc(CC(=O)NC(C)Cc2ccccc2)cc1` (centres undefined) was tested, and the Potency was inconclusive: 50.1 µM [inhibitor, partial curve].
`Cc1ccc(-c2cn(-c3ccccc3)c(SCC(N)=O)n2)cc1C` was tested, and the Potency was inconclusive: 35.5 µM [inhibitor, full curve, poor fit].
For `CCOC(=O)c1c(N)sc(C(O)(C(F)(F)F)C(F)(F)F)c1-c1ccccc1`, the Potency was inconclusive: 39.8 µM [inhibitor, single point].
With `COc1ccc(C(=O)N2CCN(Cc3ccc(OC)c(OC)c3)CC2)cc1` the Potency was active: 3.16 µM.
For `Cc1cccc(CSc2ncccc2C(=O)O)c1`, the Potency was active: 11.2 µM and active: 50.1 µM.
For `COc1ccc(NC(=O)CN(C)CC(=O)Nc2ccc(C)c(S(=O)(=O)N3CCCCC3)c2)cc1`, the Potency was inconclusive: 31.6 µM [inhibitor, partial curve].
In the case of `COC(=O)C1CCN(C(=O)C(C)Oc2ccc(Cl)cc2Cl)CC1` (centres undefined), the “activity change, negative = inhibition” value is reported as inactive: -0.746%.
In the case of `COc1ccc(S(=O)(=O)N(CC(=O)Nc2ccc3c(c2)OCO3)c2ccccc2OC)cc1`, the “activity change, negative = inhibition” value is reported as inactive: -23.7%.
`C=CC(=O)Nc1cccc(Oc2ccnc(Nc3ccc(N4CCN(C)CC4)cc3)n2)c1` was tested, and the Potency was active: 44.7 µM.
With `O=[N+]([O-])c1ccccc1S(=O)(=O)Nc1cccc2cccnc12` the Potency was active: 56.2 µM.
With `O=C(CSc1nc2ccccc2s1)Nc1ccc(Cl)c(C(=O)O)c1` the Potency was active: 50.1 µM.
With `C#CC[N+](CC)(CC)CC#Cc1cccc(Cl)c1` the Potency was inconclusive: 39.8 µM [inhibitor, single point].
With `COc1ccc(NC(=O)c2cc(C3CC3)nc3c2c(C)nn3-c2ccccc2)cc1OC` the “activity change, negative = inhibition” value was inactive: -22.3%.
For `COc1ccccc1OC(C)C(=O)N1CCC(Cc2ccccc2)CC1` (centres undefined), the “activity change, negative = inhibition” value was inactive: -16.2%.
In the case of `CN(C)S(=O)(=O)c1ccc(C(=O)NCC(=O)N/N=C/c2ccco2)cc1`, the “activity change, negative = inhibition” value is reported as inactive: -14.1%.
`COc1cc(C2C(C(=O)c3ccco3)=C(O)C(=O)N2Cc2ccccc2)ccc1O` (centres undefined) was tested, and the Potency was active: 56.2 µM.
For `Cc1ccc(NC(=O)c2c(NC(=O)C(F)(F)F)sc3c2CCCCC3)cc1`, the Potency was inconclusive: 39.8 µM [inhibitor, partial curve].
With `CCCC(C)C(=O)Nc1nc(C)c(-c2csc(Nc3cc(OC)ccc3OC)n2)s1` (centres undefined) the Potency was inconclusive: 31.6 µM [inhibitor, single point].
With `Cc1ccccc1NC(=O)CSc1ccc(-c2cccs2)nn1` the “activity change, negative = inhibition” value was inactive: -13.6%.
`CNC(=S)N1N=C(c2ccc(C)cc2)CC1c1ccc(OC)c(OC)c1` (centres undefined) was tested, and the Potency was inconclusive: 79.4 µM [inhibitor, single point].
`Cc1nc(C)c(Oc2cccc(C(F)(F)F)c2)c(=O)[nH]1` was tested, and the “activity change, negative = inhibition” value was inactive: -8.62%.
`Cc1nc(CNC(=O)CC2C(=O)NCCN2Cc2ccoc2)nc2c1CCCC2` (centres undefined) was tested, and the Potency was inconclusive: 89.1 µM [inhibitor, single point].
For `O=C(COC(=O)c1ccccc1Nc1cccc(C(F)(F)F)c1)NCc1ccco1`, the Potency was active: 56.2 µM.
`Cc1cc2cc(CNC(=O)COc3ccccc3)ccc2n1C` was tested, and the Potency was inconclusive: 79.4 µM [inhibitor, partial curve].
In the case of `Cc1ncn(-c2ccccc2)c1-c1ccccc1`, the Potency is reported as inconclusive: 63.1 µM [inhibitor, partial curve].
In the case of `COC(=O)c1[nH]c2ccc(F)cc2c1NC(=O)CCN1CCN(Cc2ccc3c(c2)OCO3)CC1`, the “activity change, negative = inhibition” value is reported as inactive: -18.6%.
`CCOc1ccc(CCNC(=O)CN2CCN(Cc3ccccc3F)C2=O)cc1OCC` was tested, and the Potency was inconclusive: 3.16 µM [inhibitor, partial curve, poor fit].
With `COc1ccc(C(=O)NCC(c2ccccc2)N2CCCC2)cc1S(=O)(=O)N1CCOCC1` (centres undefined) the “activity change, negative = inhibition” value was inactive: -15.8%.
In the case of `CN(C)C(=O)NC1C=CS(=O)(=O)C1` (centres undefined), the “activity change, negative = inhibition” value is reported as inactive: -4.79%.
In the case of `O=C(NC1CCCC1)C(c1ccncc1)N(Cc1ccccc1)C(=O)c1ccc(-c2ccccc2)[nH]1` (centres undefined), the Potency is reported as inconclusive: 25.1 µM [inhibitor, full curve].
For `N#Cc1ccc(C[C@@H](NS(=O)(=O)c2ccc(C(=O)O)cc2)C(=O)O)cc1`, the Potency was inconclusive: 89.1 µM [inhibitor, single point].
With `Cc1csc2c(N3CCN(S(=O)(=O)c4ccc(Cl)cc4)CC3)ncnc12` the Potency was inconclusive: 12.6 µM [inhibitor, partial curve].
In the case of `Cc1ccc(NS(=O)(=O)c2ccc(-c3cc(C)no3)cc2)c(Br)c1`, the “activity change, negative = inhibition” value is reported as inactive: 8.97%.
For `O=C(CCS(=O)(=O)c1cccc2nonc12)Nc1ccc(Br)cc1`, the Potency was active: 79.4 µM.
With `COc1ccc(/C=N/NC(=O)c2nc(-c3ccccc3)n(-c3ccccc3)n2)c(O)c1` the “activity change, negative = inhibition” value was inactive: -5.95%.
`COC(=O)c1c(NC(=O)CC2SC(N)=NC2=O)sc2c1CCCC2` (centres undefined) was tested, and the Potency was inconclusive: 56.2 µM [inhibitor, partial curve].
In the case of `COc1ccc(C(=O)NNc2ccccc2)cc1OC`, the Potency is reported as inconclusive: 79.4 µM [inhibitor, single point].
`Cc1cc(N/C(=N/S(=O)(=O)c2cc(F)ccc2F)c2ccccc2)n(-c2ccccc2)n1` was tested, and the Potency was inconclusive: 39.8 µM [inhibitor, partial curve].
With `CS(=O)(=O)c1ccc(C(=O)Nc2nc(-c3ccco3)c(-c3ccco3)s2)cc1` the activity change, negative = inhibition was inconclusive: -75.9% [inhibitor].
`COc1ccc2[nH]cc(CCN=C(NC(=O)c3ccccc3C)Nc3nc(C)cc(C)n3)c2c1` was tested, and the Potency was inconclusive: 44.7 µM [inhibitor, partial curve].
For `CCC1CCc2c(sc(N)c2C(N)=O)C1` (centres undefined), the Potency was inconclusive: 56.2 µM [inhibitor, partial curve, poor fit].
In the case of `Cc1cc(C(=O)NC(C)C2CC2)c(Cl)cc1Cl` (centres undefined), the “activity change, negative = inhibition” value is reported as inactive: 2.99%.
For `CCOC(=O)C1CCCCN1Cc1ccc(F)cc1` (centres undefined), the Potency was active: 4.47 µM.
With `CCOc1ccc(NC(=O)CN2C(=O)COc3ccc(S(=O)(=O)N4CCCCC4)cc32)cc1` the Potency was inconclusive: 25.1 µM [inhibitor, full curve].
For `COc1cc(OC)c(N(C)C(=O)c2sc3nc4n(c(=O)c3c2C)CCCCC4)cc1Cl`, the Potency was inconclusive: 100 µM [inhibitor, partial curve].
For `Cc1ccc(C2C(C(=O)c3cc4ccccc4o3)=C(O)C(=O)N2CCN2CCOCC2)cc1` (centres undefined), the Potency was inconclusive: 56.2 µM [inhibitor, partial curve, poor fit].
With `C/C=C/c1ccc(OCC(O)CN2CCCCCCC2)c(OC)c1` (centres undefined) the Potency was active: 3.16 µM.
In the case of `CC1CCCCC1NC(=O)CSCC(=O)O` (centres undefined), the Potency is reported as inconclusive: 89.1 µM [inhibitor, single point].
For `COCCn1c(SCC(=O)c2ccc(CNC(C)=O)o2)nc2ccccc2c1=O`, the Potency was active: 79.4 µM.
For `S=C(c1ccc(-c2ccc(Br)cc2)o1)N1CCOCC1`, the Potency was active: 35.5 µM.
`Cc1cc(Nc2cc(F)ccc2C)nc(-n2nc(C)cc2C)n1` was tested, and the Potency was inconclusive: 8.91 µM [inhibitor, full curve, poor fit].
With `Cc1cc(C)n(Cc2n[nH]c(=S)n2Cc2ccccc2)n1` the Potency was active: 22.4 µM.
In the case of `COc1cccc(NS(=O)(=O)c2ccc3[nH]cc(C(=O)N4CCCC4)c(=O)c3c2)c1`, the Potency is reported as inconclusive: 2.51 µM [inhibitor, full curve, poor fit].
With `Cc1cc2c(cc3c(SCc4ccccc4Cl)nnc(C)n32)o1` the Potency was inconclusive: 35.5 µM [inhibitor, partial curve].
For `CCCCCCN1C2=NCCN2c2ccccc21`, the “activity change, negative = inhibition” value was inactive: -3.08%.
In the case of `Cc1cc(NC(=O)c2ccc(NC(=O)CCS(=O)(=O)c3cccs3)cc2)ccc1Br`, the “activity change, negative = inhibition” value is reported as inactive: -4.44%.
`CCSc1nc2c([nH]1)c(=O)n(C)c(=S)n2C` was tested, and the Potency was active: 5.01 µM.
In the case of `CN(CC(=O)Nc1cccc(F)c1)C(=O)c1ccc2c(c1)CC(c1ccccc1)OC2=O` (centres undefined), the Potency is reported as inconclusive: 22.4 µM [inhibitor, single point].
For `CN1CCN(NC(=S)Nc2ccccc2)CC1`, the Potency was inconclusive: 39.8 µM [inhibitor, single point].
For `O=C(NCCCN1CCN(c2ccccc2F)CC1)c1ccc2nc(N3CCCCC3)sc2c1`, the Potency was inconclusive: 56.2 µM [inhibitor, partial curve].
`COc1ccc(C2=NS(=O)(=O)N(C)C(C(=O)Nc3ccc4c(c3)OCO4)=C2)cc1` was tested, and the Potency was inconclusive: 25.1 µM [inhibitor, full curve].
`CC(C)(C)[C@@H]1C=C(C(=O)N2CCN(Cc3ccc4c(c3)OCO4)CC2)O[C@H](OCc2ccc(CO)cc2)C1` was tested, and the Potency was inconclusive: 56.2 µM [inhibitor, partial curve].
Further: nearly all actives have a fitted effect of over 50% in size.
On the % scale 0 is the no-effect control and ±100 the full control effect; potency means the concentration at half of the fitted maximal effect; tags describe the fitted curve by direction and shape.
